# Laboratory results taken from paper PMC4336329 (PLoS ONE, 2015).
# Out of some 310,000 compounds screened, about 2,200 (0.71%) showed an effect of 50% or more. Effects have a minus sign here. Some of the results follow.
# Molecular target: human ether-à-go-go-related gene (hERG) potassium channel (human, UniProt Q12809)
# Experiment: primary screen, population patch clamp on CHO cells stably expressing hERG
# human ether-à-go-go-related gene (hERG) potassium channel, sequence (Q12809 whole entry, looked up): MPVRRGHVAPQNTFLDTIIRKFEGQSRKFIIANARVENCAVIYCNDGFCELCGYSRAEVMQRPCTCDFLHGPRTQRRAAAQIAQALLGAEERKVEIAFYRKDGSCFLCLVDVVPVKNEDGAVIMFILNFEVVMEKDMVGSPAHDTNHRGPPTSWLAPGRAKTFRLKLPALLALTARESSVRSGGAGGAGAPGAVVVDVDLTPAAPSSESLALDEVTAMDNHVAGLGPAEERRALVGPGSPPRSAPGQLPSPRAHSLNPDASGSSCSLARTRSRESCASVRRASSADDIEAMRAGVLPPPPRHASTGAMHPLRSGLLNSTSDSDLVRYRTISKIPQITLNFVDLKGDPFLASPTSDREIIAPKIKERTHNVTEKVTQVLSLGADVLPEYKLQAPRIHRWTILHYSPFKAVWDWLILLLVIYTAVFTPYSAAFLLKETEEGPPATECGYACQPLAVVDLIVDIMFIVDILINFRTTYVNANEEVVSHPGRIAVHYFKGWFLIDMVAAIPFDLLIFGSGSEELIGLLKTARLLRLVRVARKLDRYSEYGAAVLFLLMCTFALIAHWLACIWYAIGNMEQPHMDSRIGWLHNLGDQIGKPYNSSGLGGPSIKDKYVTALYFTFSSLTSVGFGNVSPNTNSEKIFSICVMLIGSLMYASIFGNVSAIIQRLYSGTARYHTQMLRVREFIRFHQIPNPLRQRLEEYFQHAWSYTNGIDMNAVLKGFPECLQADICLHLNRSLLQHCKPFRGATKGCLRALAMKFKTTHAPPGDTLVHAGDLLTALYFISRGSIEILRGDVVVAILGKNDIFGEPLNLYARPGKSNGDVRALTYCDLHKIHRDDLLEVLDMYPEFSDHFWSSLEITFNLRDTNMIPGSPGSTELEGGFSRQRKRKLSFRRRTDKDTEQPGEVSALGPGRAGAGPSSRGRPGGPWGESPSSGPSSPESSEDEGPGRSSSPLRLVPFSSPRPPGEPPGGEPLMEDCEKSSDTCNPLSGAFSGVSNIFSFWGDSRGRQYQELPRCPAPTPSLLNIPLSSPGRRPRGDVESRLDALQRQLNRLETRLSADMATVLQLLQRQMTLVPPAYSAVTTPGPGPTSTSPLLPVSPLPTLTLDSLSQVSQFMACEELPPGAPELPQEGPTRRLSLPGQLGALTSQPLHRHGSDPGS
row,SMILES,"hERG current change (%, negative = inhibition) at 1uM"
1,O=C(CCCOc1ccccc1)NCCc1nc2ccccc2[nH]1,13.4%
2,Cc1ccc(NS(=O)(=O)c2ccc(Cl)c(C(=O)Nc3cccc(C(=O)O)c3)c2)cc1,14.2%
3,C=CC#CC1(O)CC(C)N(C)CC1C (stereo not drawn),7.31%
4,CCn1cc(C(=O)NC(=S)Nc2cccc(O)c2)cn1,7.86%
5,COCCNC(=O)C(c1ccc(OC)cc1)N(Cc1ccco1)C(=O)CCC(=O)Nc1ccccn1 (stereo not drawn),18.7%
6,Cc1cccc(OCCn2ccnc2)c1,12.7%
7,CN(Cc1ccco1)C(=O)Cn1nc(-c2ccc(Cl)cc2)ccc1=O,-12.2%
8,O=C(OCc1cc(=O)n2c(n1)sc1ccccc12)c1ccc2c(=O)n3c(nc2c1)CCC3,18.1%
9,O=C(/C(=C/c1ccccc1)n1cncn1)c1ccc(Cl)cc1Cl,1.58%
10,CCCC(=O)N1CCN(c2ccc(NC(=O)C(C)(C)C)cc2Cl)CC1,7.54%
11,CC(c1ccon1)N(C)Cc1cn(Cc2ccccc2)nc1-c1ccc2c(c1)OCO2 (stereo not drawn),4.83%
12,O=C(CSc1ccccn1)N/N=C/C=C/c1ccccc1,-3.19%
13,O=C(COC(=O)C1COc2ccccc2O1)NC(=O)NC1CCCCC1 (stereo not drawn),-0.718%
14,O=C(CN1C(=O)S/C(=C\c2ccccc2F)C1=O)Nc1ccccc1O,17%
15,Cc1c(NC(=O)COC(=O)C2=COCCO2)cccc1[N+](=O)[O-],14.3%
16,CCCN(c1ccccc1F)S(=O)(=O)c1c[nH]c(C(=O)OC)c1,12.4%
17,CC(C)C(C(=O)O)N1CCS(=O)(=O)CC1 (stereo not drawn),-4.78%
18,CC1SCC(=O)N(CC(=O)NCCc2ccccc2)C1=O (stereo not drawn),-6.6%
19,Cc1cccc(NC(=O)CSc2cc(C(=O)c3nccn3C)c3ccccc3n2)c1,13%

row,SMILES,"hERG current change (%, negative = inhibition) at 1uM"
1,CC(C)(C)NCC(O)COc1ccccc1C(=O)CCc1ccccc1.Cl (stereo not drawn),-33.4%
2,CCc1c(C)nc2ncnn2c1NCCc1ccc(OC)cc1,7.5%
3,CC(=O)Nc1ccc(N(C(=O)CNC(=O)c2cccs2)C(C(=O)NC(C)(C)C)c2ccccc2)cc1 (stereo not drawn),7.56%
4,O=C(CSc1nc2ccccc2c(=O)n1-c1ccc(F)cc1)NCc1ccco1,2.22%
5,COc1ccccc1N1CCN(C(=O)c2cccc(N3C(=O)C4C5C=CC(C5)C4C3=O)c2)CC1 (stereo not drawn),14%
6,COc1ccc(NC(=O)C2CCN(S(C)(=O)=O)CC2)cc1Cl,1.51%
7,Cc1ccc(C)c(NC(=O)CCC(=O)NNC(=O)COc2cc(C)ccc2C)c1,13.9%
8,COc1ccccc1NC(=O)CSC1=NC(=O)C(NC(C)=O)C(=O)N1 (stereo not drawn),3.79%
9,CCOc1ccc(S(=O)(=O)N2CCCCC2)cc1NC(=O)CN1C(=O)NC(C)(C2CC2)C1=O (stereo not drawn),11.7%
10,Cc1ccc(-n2nnc(-c3cc4ccccc4n3C)n2)cc1,7.06%
11,COC(CNC(=O)c1ccc(N2CCC3(CC2)OCCO3)c([N+](=O)[O-])c1)OC,8.12%
12,O=c1oc(-c2cccs2)nc2sc3c(c12)CCCCC3,-11.6%
13,CCc1cccc(CC)c1NC(=O)c1cccc(NC(=O)c2ccccc2)c1,-7.62%
14,CC(=O)N/C(=C/c1ccccc1)C(=O)NCCO,4.61%
15,O=C(CSc1nc(-c2ccccc2)cc(C(F)(F)F)n1)c1cccc([N+](=O)[O-])c1,17.6%
16,COc1ccc(OC)c(NC2=NCCS2)c1,12%
17,Cc1nc(NC(=O)CCc2ccccc2)sc1C,13.4%
18,CN1CCN(C(=O)c2cc(Cl)cc(Cl)c2NC(=O)c2ccco2)CC1,11.3%
19,Cc1ccc(NC(=S)NCC2CCCO2)cc1C (stereo not drawn),-7.46%

row,SMILES,"hERG current change (%, negative = inhibition) at 1uM"
1,O=C(CC1c2ccccc2Oc2ccccc21)Nc1ccccc1F,9.34%
2,CCOC(=O)C1Cc2c([nH]c3ccccc23)CN1.Cl (stereo not drawn),9.08%
3,CC1=NN(Cc2ccccc2)C(=O)/C1=C\c1ccc(N(C)C)cc1,4.66%
4,Cc1cc(-c2ccc(C)c(S(=O)(=O)NCc3ccc(Br)cc3)c2)on1,-5.83%
5,CC(SCC(=O)Nc1ccccc1)c1nc2ccccc2c(=O)[nH]1 (stereo not drawn),6.91%
6,Cc1ccc(-n2c(SCC(N)=O)nc3c([nH]c4ccccc43)c2=O)cc1,14.9%
7,CCc1cc(=O)oc2c3c(cc(OCC(=O)NCCCC(=O)O)c12)OC(C)(C)CC3,10.5%
8,O=C(c1cccs1)N1CCN(c2nc3ccccc3s2)CC1,7.28%
9,O=C1CN(C(=O)CSc2nnc(Nc3ccccc3)s2)c2ccccc2N1,2.18%
10,CC(C)NCc1cccc([N+](=O)[O-])c1.O=C(O)C(=O)O,11.8%
11,O=C(CCN1C(=O)c2ccccc2C1=O)NCCCn1ccnc1,11.1%
12,CCCNC(=O)N1[C@H]2CC[C@@H]1C(C(=O)OC)=C(c1cccc(C#N)c1)C2,-0.51%
13,Cc1cccc(C)c1N1CCN(CCn2c(=S)[nH]c3ccccc3c2=O)CC1,19.6%
14,Cl.NS(=O)(=O)c1ccc(CCNCc2cc(Cl)ccc2OCc2ccccc2)cc1,-59.3%
15,CCN(Cc1cc2cc(OC)ccc2[nH]c1=O)C(=O)c1ccncc1,-14.1%
16,CCCCCc1cc(O)c2c3c(c(=O)oc2c1)CN(C)CC3,7.07%
17,Cc1ccc(NC2CCCN(C(=O)c3ccc(-n4ccnc4)cc3)C2)cc1C (stereo not drawn),-4.71%
18,C=CCn1c(C2CC2)n[nH]c1=S,1.66%
19,O=S(=O)(NC(=NC1CCCCC1)c1ccccc1)c1ccccc1,6.41%
